In the RNAGym collection of RNA variant scans (doi:10.7554/elife.90254):
The source gives no read counts; variants with many changes may rest on few reads.

B1: LINE1-mini (parent)
chain: GGCAGAGCUCAACACAGCGUGGCAAAGUGGCUGUGGCUAGACUGCC

Variants of: B1
Assay: self-cleavage, relative activity (ratio to wild type); higher = more cleavage; in vitro, sequencing; the parent is a self-cleaving ribozyme

Row | Variant | self-cleavage
1 | GGCAUAGCUCUACAUAGCGUGGCAGAGAGGCUGUGGCUAGACUGAC | 0.01
2 | GGCAGAGCUUAACACAGCGUCGCAAAGUGGCUGUGGCUAGACUCCC | 0.14
3 | GGCAGAACUCAACACAGCGUGGCAAAGUGUAUGUGGUUAGACUGCC | 0.05
4 | CGCAGAGCUCCUCACAGUGUGGCAAAGUGGCUAUGGGUACACUGUC | 0
5 | GGCAGAGCUCAACACAGCGUGUCAAAGUGGCUGGGGCUAGCCUGCC | 0.01
6 | GCCAGAGUUCAACACAGCGUUGCAAAGUGGCUGUGGCUAGACUGCC | 0.11
7 | GGCCGAGGUCUACACAGCGUAGCAAAGUGGCUGUGGCUAGACUGCC | 0.01
8 | GGCAGAGGGCAACACAGCGUGGCAAAUUGGCUGUGGCGAGAAUGCC | 0.04
9 | GGCAGAGCUCAACACAGGGGGGCAAAAUGGGUGUGGCUAGACUGCC | 0.02
10 | GGCUGAGCUAAACACAGCAUGGCAAAGUGGCUGUGGGUAGCCUGCC | 0
11 | GGCAGAGCUCAACACGGCGUGGCAAAGUCGCUGUCGCUAGACAGCC | 0.01
12 | GGCAGAGCUCAACACCGCGUGUCAUAGUGGCUGUGGCUAGACUGCC | 0.1
13 | GGCGGAGCUAACCACAGCGUGGCAAAGUGGCUGUGGCUAGACCGCC | 0.04
14 | GGCAGAGCUCAACACAGGGUGGCUAAGUGGAUUUGGCUAGACUGCC | 0.02
15 | GGCAGAGCUCAACACAGCCUGGCAAAGUUGCUAUGGCUAGACUCCC | 0.07
16 | GGCAGAGCUCAACACAGCGUGGCAAAUUCGCUGUGGCUAGACAGCC | 0.01
17 | GGCCGAGCUCUACACAAAGUUGCAAAGUGGCUGUGGCUAGACUGCC | 0.01
18 | GGCAGAGAUCAACACAGCGUGGCAAAGUGGCUGAGGUUAGACUGCC | 0.07
19 | GGCAGAGCUGAACCCAGCGUGCCAAAGUGGCUGUGGCUAGGCUGCC | 0

Row | Variant | self-cleavage
20 | GGCAGAGCUCCACACAGCGUGGCAAAGUGGCUGUGGCUCGGCAGCC | 0.04
21 | GGCAGAGCUCAACACAGCGUGGCAAAGAGGCCUUGGCUAGACUGCC | 0.07
22 | GGCAGAGCUCAACACAGCAUCGCAUAGUCGCUGUGGCUAGACUGCC | 0.41
23 | GGCAGAGCUCAACACAGCGUGGCGAAGUUGCUGUGGCUAGAUUGCC | 1.02
24 | GGCAGAGCUCAAUACAGCGUGGCAAAGUGGCUCUGGCUAGAUUGCC | 0.02
25 | GGCAAAGCUCAACACAGCGUGGCAAAGAGGUUGUGGCUAGACUGUC | 0.02
26 | GGCAGAGCUCAACACAGCGUGGCAAAGUUGCUGUGGCGAGAGUGCC | 0.01
27 | GGCAGGGCUGAACACAGCGUGGCAAAGUGUAUGUGGCUAGACUGCC | 0
28 | GGCAUAGCUCAACACAGCGUGGCAAAUUGGCUGUGGCUAGACUGCA | 0.22
29 | GGCAGAGCUCAACAAAGCGUGGCCAAGUGGGUGGGGCUAGACUGCC | 0.02
30 | GGCAUAGCCGAACACAGCGUCGCAAAGUGGCUGUGGCUAGACUGCC | 0
31 | GCCAGAGCUCAACUGAGAUUUGCAAAGUGUCUGCGGCUAGACUGCC | 0.04
32 | GGCAGAGUUCGACACAGCGUGGCAAAGUGGCUGUGGCUAAACUGCC | 0.02
33 | GGCAGAACUCAACACACCGUGGCAAUUUGCCUGUGGCUAGACUGCC | 0.1
34 | GGCAGAGCUCAACACAGCGUGACGGAGUGGCUCUGGCUAGACUGCC | 0.08
35 | GGCAGAGCUCAACACAGCGUGGCAAAAUAGCUUUGGCUAGACUCCC | 0.02
36 | GGCAGAACUCAACACAGCGUGGGAAAGUGGCGGUGGCUAGACUGCC | 0.03
37 | GGCACAGGUCAACACAGCGUGGCAAAGUGGCUCUGGAGAGGCUGCC | 0.01
38 | GUCAGAGCUCAACACAGUGUUGCAAAGUGGCUGGGGCUAGACUGCC | 0.02

Row | Variant | self-cleavage
39 | GGCAGAGCUUAACACAGUGUGGCAAAGUGGCUGUGGCUAGACUGUC | 0.96
40 | GGCAGAGCGCUGCACAGCGUGGCAAAGUGGCUGUGGCUAGACUGCU | 0.02
41 | GGUAGAGCUCAACACAGCGUGGCAAAGUGGCUGUGGCAAUACUGCC | 0.06
42 | GGCAGGGCUCAACACAGCGUGGCAAAGUUGCUGUGGCUAGCCUACC | 0.03
43 | GGCGGAGAUCAAGACAGCGUGGCAAAGUGGCUCUGGCUAGACUGCC | 0.29
44 | GGCAGACCUCAACACAGCUAUGCAAAGUGGCUGUGGCUAGACUGAC | 0.02
45 | GGCACAGCUCAACAGAGCAUGGCAGAGUGGCUGUGGCUAGACUGCC | 0.04
46 | GGCAGAGCUCAACACAGCGUGGCAUAGUGGCUGUGGCGAGACUACC | 0.02
47 | GGCAGAGCUCAACACAUACUGGCAAAGUGGCUGUGGCUAGACUGCC | 0.81
48 | GGCAGAGCUCAAGCCAGCGUGGCAAAGUGGCUGUGGCUGGACUGCC | 0.06
49 | GGCAGAGCUCAAGACAGCGUGGCAAUGUGGCUGUGGCUAGAGUGCC | 0.08
50 | GGCAGAGCUCAACACAGCGUGGCUUAGUGGAUCUGGCUAGAAUGCC | 0.02
51 | GGCAGAGCUAAACAAAGCGUGCCAAAAAGGCUGUGGCUGGACUGCC | 0.01
52 | GGCAGAGCUCAACAUAGUGUGGCUAACUGGCUGUGGCUAGCCUGCC | 0.13
53 | GGCAGUUCUCAACAGAGCGUGGCAAAGAGGCUGUGGCUAGACUGCC | 0.01
54 | GGCAGGGCUCAACACAACGUGGCAAAUUGGCUGUGGCUAGACUGCA | 0.02
55 | GGCAGAGCUCCAUAAAGCGUGGCAAAGUGGCUGUGGCUAGACUGAC | 0.01
56 | GGCAGAGCUCAACACAGCGUGGCGUAGUGGCUGUUGUUAGACUGCC | 0.03
